From PMC12454647

Biological target: T1, AdhE from Escherichia coli K12 (Escherichia coli K12), P0A9Q7
T1 chain: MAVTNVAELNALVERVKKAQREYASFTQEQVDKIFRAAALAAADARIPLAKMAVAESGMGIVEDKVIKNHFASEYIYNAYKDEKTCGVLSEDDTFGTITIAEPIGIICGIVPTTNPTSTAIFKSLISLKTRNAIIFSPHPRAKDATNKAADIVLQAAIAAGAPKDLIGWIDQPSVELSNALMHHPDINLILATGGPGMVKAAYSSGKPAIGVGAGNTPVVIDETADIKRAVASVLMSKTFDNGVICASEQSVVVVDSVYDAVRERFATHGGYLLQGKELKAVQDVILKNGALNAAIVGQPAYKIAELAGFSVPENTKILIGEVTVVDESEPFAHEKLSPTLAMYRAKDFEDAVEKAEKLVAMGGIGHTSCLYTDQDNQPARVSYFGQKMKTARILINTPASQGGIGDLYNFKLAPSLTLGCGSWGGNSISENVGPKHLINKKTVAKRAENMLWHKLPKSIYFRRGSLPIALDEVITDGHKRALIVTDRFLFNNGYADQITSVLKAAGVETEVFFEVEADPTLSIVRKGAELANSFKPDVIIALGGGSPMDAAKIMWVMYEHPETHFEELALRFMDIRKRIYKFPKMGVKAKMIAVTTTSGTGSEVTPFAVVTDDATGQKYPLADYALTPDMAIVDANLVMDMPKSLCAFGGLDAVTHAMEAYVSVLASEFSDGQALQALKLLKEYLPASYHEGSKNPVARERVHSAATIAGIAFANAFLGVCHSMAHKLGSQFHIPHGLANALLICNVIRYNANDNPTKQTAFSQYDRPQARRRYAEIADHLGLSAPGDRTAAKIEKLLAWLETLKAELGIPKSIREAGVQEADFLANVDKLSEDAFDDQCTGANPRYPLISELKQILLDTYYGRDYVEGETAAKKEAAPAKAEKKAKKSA
Assay: native gel or EMSA; blue native PAGE, 3-14% polyacrylamide gradient, 150 V for ~75 minutes; purified AdhE 5 or 10 ug, BdhE 1 or 2 ug
Settings: remark: other sources report otherwise

- stoichiometry N: 2
B1: AdhE from Escherichia coli K12, P0A9Q7 1-891 (enzyme)
chain: T1 chain
